Test results reported in publication PMC4219380.
No constants are given. Whether binding was seen depends on the method and setting. For some of these results: In cells and extracts the contact can be indirect. Some entries that bind do so weakly or less than the wild type.

Amino acid sequences for entries named in this document (tags omitted).
UniProt Q9FDW1: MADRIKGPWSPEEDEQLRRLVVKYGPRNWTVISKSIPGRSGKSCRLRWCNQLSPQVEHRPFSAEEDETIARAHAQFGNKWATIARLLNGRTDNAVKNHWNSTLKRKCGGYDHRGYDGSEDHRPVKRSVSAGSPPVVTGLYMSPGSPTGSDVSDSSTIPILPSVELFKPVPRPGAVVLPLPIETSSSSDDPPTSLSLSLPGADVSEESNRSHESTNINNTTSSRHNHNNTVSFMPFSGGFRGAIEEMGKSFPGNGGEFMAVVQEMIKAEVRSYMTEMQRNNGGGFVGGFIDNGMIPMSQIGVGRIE
UniProt Q9SN12: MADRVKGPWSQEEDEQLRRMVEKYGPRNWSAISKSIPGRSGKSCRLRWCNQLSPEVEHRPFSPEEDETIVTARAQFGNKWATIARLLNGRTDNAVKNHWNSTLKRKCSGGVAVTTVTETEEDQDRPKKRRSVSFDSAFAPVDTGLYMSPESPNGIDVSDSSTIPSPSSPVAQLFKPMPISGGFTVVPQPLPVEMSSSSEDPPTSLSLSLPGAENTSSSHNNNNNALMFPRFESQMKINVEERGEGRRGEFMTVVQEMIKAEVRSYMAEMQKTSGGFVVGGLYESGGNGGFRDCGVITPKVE
UniProt Q8VZS8: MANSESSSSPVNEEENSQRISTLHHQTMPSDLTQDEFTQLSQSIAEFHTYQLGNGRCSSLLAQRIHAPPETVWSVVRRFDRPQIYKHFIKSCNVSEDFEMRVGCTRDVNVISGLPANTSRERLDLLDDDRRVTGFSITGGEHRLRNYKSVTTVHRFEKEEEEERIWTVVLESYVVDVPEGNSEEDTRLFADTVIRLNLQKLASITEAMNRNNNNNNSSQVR

How the values were obtained:
[1] = target: AtMYBR1/AtMYB44 full length fused to the GAL4 DNA-binding domain (pGBT9-MYBR1) (Arabidopsis thaliana) (UniProt Q9FDW1); test: two-hybrid; individual clones: pGBT9-MYBR1 or pGBT9-MYBR2 in yeast Y2H Gold mated 1 d at 30°C with pGADT7 fusions in yeast Y187; screened on DDO, DDO/X/A and QDO/X/A; also with phytohormones and inhibitors of auxin signaling (PCIB) and transport (TIBA, NPA), which did not affect the interactions
[2] = target: AtMYBR2/MYB77 full length fused to the GAL4 DNA-binding domain (pGBT9-MYBR2) (Arabidopsis thaliana) (UniProt Q9SN12); test: as above
[3] = target: YFP175-end aa -MYBR1 (Arabidopsis thaliana) (UniProt Q9FDW1); test: split reporter; BiFC in N. benthamiana leaf epidermal cells; eYFP reconstituted from YFP1-174 and YFP175-end fusions

Row | binding [1] | binding [2] | binding [3] | Substance
1 | binds | – | – | AtMYBR2/MYB77 fused to the GAL4 activation domain (MYBR2-pGADT7) (from UniProt Q9SN12 1-301)
2 | no binding | no binding | – | PYL1 fused to the GAL4 activation domain (pGADT7) (from UniProt Q8VZS8 1-221) (receptor)
3 | – | – | binds | YFP1-174 aa -MYBR2 (from UniProt Q9SN12 1-301)
